Whole data set: some 33,000 sequences, median “E-score (-0.5 to 0.5)” near -0.054, cut for the highest 2% near 0.35. This is one part of the list.
What follows are sequences tested against T1, Stb5 (UniProt P38699) (assay: PBM E-score (8-mer binding enrichment) (E-score (-0.5 to 0.5)); higher = stronger / more preferred TF binding; most listed sequences are background and not binding sites). Conditions: protein concentration: 200 nM; construct: GST-full length.
T1 sequence: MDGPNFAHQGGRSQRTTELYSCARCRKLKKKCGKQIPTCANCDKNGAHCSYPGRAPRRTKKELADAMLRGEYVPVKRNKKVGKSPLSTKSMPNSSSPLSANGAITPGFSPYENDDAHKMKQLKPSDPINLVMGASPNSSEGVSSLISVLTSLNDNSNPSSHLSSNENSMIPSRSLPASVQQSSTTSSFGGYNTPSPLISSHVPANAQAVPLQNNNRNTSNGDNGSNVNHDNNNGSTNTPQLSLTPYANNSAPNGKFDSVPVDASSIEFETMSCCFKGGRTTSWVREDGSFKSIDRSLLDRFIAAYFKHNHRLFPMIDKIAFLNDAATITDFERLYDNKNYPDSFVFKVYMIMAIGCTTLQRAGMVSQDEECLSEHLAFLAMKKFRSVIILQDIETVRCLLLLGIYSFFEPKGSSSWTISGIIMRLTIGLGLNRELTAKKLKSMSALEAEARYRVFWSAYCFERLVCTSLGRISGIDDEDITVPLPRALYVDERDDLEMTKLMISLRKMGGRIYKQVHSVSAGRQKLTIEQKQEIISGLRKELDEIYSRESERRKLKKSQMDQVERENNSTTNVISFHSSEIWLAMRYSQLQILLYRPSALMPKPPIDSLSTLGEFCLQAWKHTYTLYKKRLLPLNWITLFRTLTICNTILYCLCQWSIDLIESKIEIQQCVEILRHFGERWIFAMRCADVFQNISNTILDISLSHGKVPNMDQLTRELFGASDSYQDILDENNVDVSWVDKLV
Outline: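 Yeast transcription factors, full-length or as DNA-binding domains, were expressed with a GST tag using PURExpress in vitro transcription/translation. At about 100-200 nM they were applied to universal all-10-mer Agilent arrays, double-stranded by primer extension on fresh or once-stripped slides. Fluorescent anti-GST detected bound protein, and masliner normalised the scans. E-scores for ungapped eight-base words, pooled with reverse complements, came from the Universal PBM Analysis Suite.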

Row | Sequence | PBM E-score
1 | TACGGACA | 0.235
2 | AGAATGTC | -0.276
3 | ATCTTGTA | -0.143
4 | ACACAATA | -0.107
5 | TAAGCCAA | -0.123
6 | TACACGCA | -0.241
7 | GACAGTGA | -0.148
8 | AACTGCTA | -0.137
9 | GAAAGCGA | -0.205
10 | ACATCCAT | -0.135
11 | GATCTAGA | -0.154
12 | AACTAAGA | -0.0165
13 | AGCCTCTG | -0.142
14 | CCCAAAGA | -0.0823
15 | CAGGTGTC | -0.0436
16 | GGAGCGAA | 0.0449
17 | ATGGCATC | -0.22
18 | AGATTTCA | -0.0811
19 | ATCTATTC | -0.0118
20 | GTATTTGA | 0.0316
21 | TATTAAGA | 0.0543
22 | CGTCGCAC | 0.0747
23 | ACGGGATG | -0.00598
24 | CCTGTTCC | -0.0917
25 | GGGTCACA | -0.0106

Row | Sequence | PBM E-score
26 | GGGCAGTA | -0.0652
27 | CGGTACGC | 0.133
28 | GAGAACAC | -0.107
29 | CGCCATAA | 0.0677
30 | GAACCACA | -0.0522
31 | TCGAAGCA | -0.208
32 | ATAAGTCC | 0.443
33 | ACCCAGAT | -0.218
34 | CGGACGTC | 0.0917
35 | GACGTGAC | -0.151
36 | AGAGCGAG | -0.184
37 | CCTACGCC | 0.00444
38 | GTAGACGA | -0.282
39 | ACACACCA | -0.218
40 | ATCACGCC | 0.0472
41 | ACATAGGT | -0.133
42 | GCATCATA | -0.0391
43 | GACCAACA | -0.133
44 | ATAGAAGA | -0.05
45 | TCATAGAA | -0.0493
46 | GACGATAC | 0.017
47 | AGAGCCCC | 0.0155
48 | CCACATAC | -0.025
49 | ACACTTGA | -0.313
50 | GAAAGTAC | 0.0695

Row | Sequence | PBM E-score
51 | AGCGAAAG | -0.138
52 | AGACAATA | 0.0255
53 | ACCGCTAA | 0.263
54 | CATTATCA | -0.186
55 | GCGAGAGC | -0.0606
56 | AATTTAAT | -0.0265
57 | CAAATGCA | -0.234
58 | AATTTGCT | -0.197
59 | GCAAATGA | -0.15
60 | CGAAAGAG | -0.0144
61 | TAGTATGA | -0.0857
62 | CCGAGCCA | 0.0835
63 | CTCGGTCA | 0.0495
64 | AAGTGATC | -0.0808
65 | ATATTGGA | -0.0664
66 | TCAGGAAA | -0.121
67 | GATTACGC | 0.0466
68 | TAGTGGGA | -0.176
69 | ACCCGGGG | 0.185
70 | CAGAAGAG | -0.369
71 | ACTATCTA | -0.0951
72 | ATTCCGTG | 0.00715
73 | AAATTTGT | -0.147
74 | GAGAAGAC | 0.0739
75 | AGGAAGAT | -0.00894

Row | Sequence | PBM E-score
76 | CCGTCGCG | 0.311
77 | GGTGTTTA | 0.425
78 | CAGCCTCG | -0.124
79 | GAGCAAGA | -0.134
80 | CCGAGAGG | -0.0851
81 | GTTCGGGA | 0.192
82 | CCTGCCCG | -0.0878
83 | AGAATGTG | -0.184
84 | GTGAGATA | 0.0545
85 | CCACGAAG | -0.143
86 | ATCCGAGC | 0.132
87 | CCGTGCCG | 0.202
88 | CTTTACCA | -0.104
89 | AGACTAAA | 0.0418
90 | CACGCCAG | -0.15
91 | CGTACAAA | -0.119
92 | CCATGCCC | -0.151
93 | CTGCGCAG | -0.271
94 | ATCTTCTC | -0.237
95 | CCTGGATC | -0.132
96 | CTCACGCA | -0.17
97 | CGAACCTA | 0.0665
98 | ACCCGCAA | 0.0571
99 | ACTTGTTA | -0.206
100 | ATTATAAC | 0.271

Row | Sequence | PBM E-score
101 | CTGGGCCA | -0.209
102 | AGGAGTCG | -0.179
103 | GTGTTAGA | 0.0904
104 | GCGACTGA | -0.188
105 | AAATCTAG | -0.0991
106 | CAACGATA | -0.125
107 | ATGCCAAC | -0.223
108 | AGATCCGC | 0.335
109 | CAGCACAG | -0.197
110 | TCAGGCGA | -0.158
111 | ATTAGTGC | -0.00685
112 | GCTGGCAA | -0.0853
113 | AATAGGGA | -0.203
114 | CACAGCGG | 0.286
115 | GAACAATA | -0.00358
116 | CAAGAATA | 0.163
117 | ATCTACGC | 0.0993
118 | TAAAAGAA | -0.0275
119 | TGGTAGAA | -6e-05
120 | CAGGCGGG | 0.31
121 | CATACTGC | -0.045
122 | CCCTACCG | 0.0937
123 | ACCGCTCC | 0.323
124 | ACAGTCAT | -0.117
125 | AACAGTCA | -0.127

Row | Sequence | PBM E-score
126 | CGGTAACC | 0.165
127 | AGTGGCAC | -0.189
128 | GTTCAAAC | 0.0508
129 | ATGAAGAG | -0.154
130 | AAGTGAGG | -0.175
131 | CTTCGAAA | -0.113
132 | ATGACTCA | -0.218
133 | AAGCCGTC | 0.243
134 | GAACCTGC | -0.191
135 | AGATTTAC | -0.0949
136 | ACTGTCAT | -0.224
137 | AAGAACAA | -0.00493
138 | AAACAGGC | -0.0952
139 | GGAGAGAA | 0.00508
140 | ATGGTACC | 0.14
141 | TGCACACA | -0.204
142 | CTTCGATC | -0.0804
143 | CATGGCCG | 0.187
144 | CACAACGG | 0.166
145 | CCTTGAGC | -0.116
146 | GATCCGTA | 0.0229
147 | ATGGAAGG | -0.0839
148 | AGAAATAA | 0.0401
149 | GCCATAGA | -0.177
150 | AATGGTGA | -0.231

Row | Sequence | PBM E-score
151 | AGACTTAA | -0.288
152 | CGGGCTGA | 0.268
153 | AATCTTAA | -0.311
154 | CGGCGAAA | 0.322
155 | ATCCGGAG | 0.338
156 | CGCCTGTA | -0.0623
157 | AATAAATG | -0.0719
158 | AAACAATG | -0.214
159 | AGAAGTCG | -0.00257
160 | CATGTCTA | -0.124
161 | GTGGGCTA | -0.172
162 | GTGGATGA | -0.322
163 | CCCACCGG | 0.303
164 | ACATGCAT | -0.0948
165 | TTATGGAA | -0.107
166 | GTCAGAGA | -0.214
167 | ATTGACGA | -0.223
168 | ATGCAAAC | 0.0134
169 | CCCATAAA | -0.0614
170 | CAGCCTGA | -0.0968
171 | ACTTTTAC | 0.0445
172 | ACAGGAGT | -0.0725

From the supplement of paper PMC3334620
